{
  "source": "ChEMBL document CHEMBL4888484",
  "about": "“Replenishing the malaria drug discovery pipeline: Screening and hit evaluation of the MMV Hit Generation Library 1 (HGL1) against asexual blood stage Plasmodium falciparum ,using a nano luciferase reporter read-out” (2022)",
  "note": "Among all 150,000 compounds or so, about 540 (0.36%) showed an effect of 50% or more. The list shows a part of the results.",
  "data": [
    {"system": "Plasmodium falciparum", "test": "Primary screen in NF54 nanoGlo assay, in single point, at 2uM, 72h; a lower Z score goes with more inhibition", "assay_type": "functional, Erythrocyte", "conditions": "timepoint 72 hour", "units": {"% Inhibition": "%"}, "values": [
      {"smiles": "Cc1nscc1C(=O)N1CCNC[C@H]1c1ccncc1", "% Inhibition": -7, "Z score": 0.97},
      {"smiles": "COc1cccc(C(=O)N[C@H]2CCCN(C3CCN(C)CC3)C2)c1", "% Inhibition": 14, "Z score": -1.26},
      {"smiles": "O=C1c2ccccc2N[C@]2(C(=O)Nc3ccccc32)N1c1ccc(F)cc1", "% Inhibition": -2, "Z score": 0.22},
      {"smiles": "Cc1ccc(CN(C)c2ccc3nnc(C4CC4)n3n2)o1", "% Inhibition": -8, "Z score": 0.96},
      {"smiles": "Cc1ccc(-c2nnc(N(Cc3ccccc3)C(C)C)n2C)s1", "% Inhibition": -37, "Z score": 4.39},
      {"smiles": "N#Cc1ccncc1N1CCN(C2CC2)C(=O)C1", "% Inhibition": -1, "Z score": 0.19},
      {"smiles": "Cc1nn(-c2ccccn2)c2c1[C@H](c1ccnn1-c1ccccc1)CC(=O)N2", "% Inhibition": -4, "Z score": 0.48},
      {"smiles": "O=S(=O)(N[C@@H](Cn1cnc2ccccc21)c1ccc(F)cc1)c1ccccc1F", "% Inhibition": -13, "Z score": 1.2},
      {"smiles": "CCOC(=O)c1c(CN(CC)CC)n(-c2ccccc2)c2ccc(OS(=O)(=O)c3ccc(C)cc3)cc12", "% Inhibition": -22, "Z score": 2.55},
      {"smiles": "C[C@H](NC(=O)c1ccc(Oc2ccccc2)o1)c1ccon1", "% Inhibition": -1, "Z score": 0.09},
      {"smiles": "CC(NC(=O)NC1CCCNC1=O)c1cnn(Cc2ccccc2)c1", "note": "(configuration not stated)", "% Inhibition": -6, "Z score": 0.81},
      {"smiles": "N#Cc1ccc(NCCNC(=O)c2ccncc2)nc1", "% Inhibition": 2, "Z score": -0.2},
      {"smiles": "CCc1nc(NC[C@@H](O)c2ccccc2OC)c2ccsc2n1", "% Inhibition": 0, "Z score": -0.02},
      {"smiles": "CC(C)[C@H]1CCCN(C(=O)CCc2cccnc2)CC1", "% Inhibition": -13, "Z score": 2.05},
      {"smiles": "N#Cc1nc2c(C#N)c(N)n(CCc3ccccc3)c2nc1C#N", "% Inhibition": 88, "Z score": -11.87},
      {"smiles": "Cc1nccn1CCN1C(=O)COc2ccc(F)cc21", "% Inhibition": 9, "Z score": -1.19},
      {"smiles": "CCN(CC)c1ccc([C@H]2N(C(=O)C(F)(F)F)CCN2S(=O)(=O)c2ccccc2)cc1", "% Inhibition": -5, "Z score": 0.83},
      {"smiles": "N#Cc1ncn(CCCOc2ccc3c(c2)OCO3)n1", "% Inhibition": -6, "Z score": 0.84},
      {"smiles": "CN1CCN(c2nc(N)nc(C3CCCCC3)n2)CC1", "% Inhibition": -1, "Z score": 0.13},
      {"smiles": "CN(C)c1cc(NC(=O)[C@@H]2C[C@H]3CC[C@@H]2O3)ccn1", "% Inhibition": -7, "Z score": 1.31},
      {"smiles": "Cc1ccccc1Nc1nc(N)nc(CN2CCOCC2)n1", "% Inhibition": -6, "Z score": 1.09},
      {"smiles": "CCN(C(=O)c1cc(C)cc(Br)c1)c1ccncc1", "% Inhibition": -8, "Z score": 0.83},
      {"smiles": "CC(C)CCOc1ccc(OCC(N)=O)cc1", "% Inhibition": -13, "Z score": 1.12},
      {"smiles": "CC1CN(Cc2cc(=O)n(C)c(=O)n2C)C(C)CO1", "note": "(configuration not stated)", "% Inhibition": -7, "Z score": 1.47},
      {"smiles": "CN1CCN(C(=O)c2ccc(Cl)o2)c2ccccc2C1", "% Inhibition": -19, "Z score": 2.06},
      {"smiles": "CCc1nn(C)c2c(=O)n(CCCN3CCCC3=O)cnc12", "% Inhibition": -14, "Z score": 1.49},
      {"smiles": "CC(=O)N1CC[C@H]2COC(=O)N2c2ccccc2C1", "% Inhibition": 26, "Z score": -2.99},
      {"smiles": "OCCC[C@@H]1CN(Cc2[nH]c3ccccc3c2Cl)CC[C@@H]1N1CCOCC1", "% Inhibition": 6, "Z score": -1.09},
      {"smiles": "Nc1nc2c(c(C(=O)NCc3cccnc3N)n1)CCCC2", "% Inhibition": -4, "Z score": 0.77},
      {"smiles": "CC(C)c1ccc(C(=O)N2C[C@@H]3NC(=O)c4ncccc4OCCn4cc(nn4)CO[C@H]3C2)c(=O)n1C", "% Inhibition": -4, "Z score": 0.44},
      {"smiles": "COCCNC(=O)CCc1c(C)[nH]c2c3c(F)cccc3nn2c1=O", "% Inhibition": -12, "Z score": 1.39},
      {"smiles": "CC1(C)COc2c(S(=O)(=O)Nc3cc(F)cc(F)c3)cnn2C1", "% Inhibition": 2, "Z score": -0.18},
      {"smiles": "O=S(=O)(Cc1ccccc1)NC1CC1c1ccccc1", "note": "(configuration not stated)", "% Inhibition": -2, "Z score": 0.17},
      {"smiles": "O=C(c1ccc2noc(-c3ccccc3)c2c1)N1CC[C@H](Oc2cnsn2)C1", "% Inhibition": -6, "Z score": 1.13},
      {"smiles": "CNc1ncccc1C(=O)N1CC[C@@]2(CN(C)C(=O)CO2)C1", "% Inhibition": -12, "Z score": 2.05},
      {"smiles": "CCCNc1ncc(CN2C[C@H](CCC)[C@@H](N(C)C)C2)cn1", "% Inhibition": 5, "Z score": -0.67},
      {"smiles": "Cc1cnn(CCNCc2sccc2C)c1", "% Inhibition": -5, "Z score": 0.69},
      {"smiles": "CC1(C)CN(C(=O)NC2CC=CC2)CC(C)(C)O1", "% Inhibition": -1, "Z score": 0.07},
      {"smiles": "Cc1ccc(S(=O)(=O)N[C@@H](CC(C)C)CN(C)C)o1", "% Inhibition": -4, "Z score": 0.57},
      {"smiles": "CN(Cc1n[nH]c2c1CCCCC2)C(=O)CN1CCCCCC1=O", "% Inhibition": -8, "Z score": 1.51},
      {"smiles": "COc1ccc(CNC(=O)N2CC[C@H](CCOc3ccc(C)cc3)C2)cc1", "% Inhibition": -12, "Z score": 2.36},
      {"smiles": "O=C(NCc1cc(F)cc(F)c1)c1cc2n(n1)CCCC2", "% Inhibition": -4, "Z score": 0.46},
      {"smiles": "Cc1ncnc(OCC2CCN(C(=O)c3cscn3)CC2)c1C", "% Inhibition": 7, "Z score": -0.85},
      {"smiles": "O=C(CCCn1cccn1)Nc1nnc[nH]1", "% Inhibition": -12, "Z score": 1.25},
      {"smiles": "O=C(N[C@H](c1ccccc1)C1CC1)c1cc(C2CC2)[nH]n1", "% Inhibition": -5, "Z score": 0.85},
      {"smiles": "CC(N1C(=O)C2CCCCCN2C1=O)C(C)(C)C", "note": "(configuration not stated)", "% Inhibition": -12, "Z score": 1.66},
      {"smiles": "Cc1ccc([C@H](CCO)Nc2nc3c(s2)c(C)nn3C)cc1", "% Inhibition": 1, "Z score": -0.12},
      {"smiles": "COc1cccc(C2C(C(=O)NCc3ccco3)c3ccccc3C(=O)N2C2CC2)c1", "note": "(configuration not stated)", "% Inhibition": 9, "Z score": -0.97},
      {"smiles": "O=C1N[C@@H]2c3ccc(Cl)cc3C(=O)N2c2ccccc21", "% Inhibition": -5, "Z score": 0.57},
      {"smiles": "CCCOc1ccc(CCNC(=O)N2CCN(C)CC2)cc1", "% Inhibition": -18, "Z score": 1.6},
      {"smiles": "CCC1(C(=O)NCC[C@H]2CCCNC2)CCCC1", "% Inhibition": -3, "Z score": 0.38},
      {"smiles": "CC(=O)NCCc1nc(Cc2cccs2)nn1CC(C)(C)O", "% Inhibition": -22, "Z score": 2.31},
      {"smiles": "O=S(=O)(c1ccccc1)N(c1ccccc1)C1CCCC1", "% Inhibition": -2, "Z score": 0.29},
      {"smiles": "COc1ccc(NC(=O)c2ccccc2NC(=O)CN(C)CC(=O)NC2CC2)cc1", "% Inhibition": -12, "Z score": 2.13},
      {"smiles": "Cc1cc(-c2cccc(C(F)(F)F)c2)c(=O)[nH]n1", "% Inhibition": -8, "Z score": 1.37},
      {"smiles": "COC(=O)c1c(C)n(S(C)(=O)=O)c2ccc(N(C(C)=O)S(C)(=O)=O)cc12", "% Inhibition": -14, "Z score": 1.89}
    ]}
  ]
}
